Test results as given in the supplement of paper PMC8728848.
The other results are listed elsewhere or left out.

How the values were obtained:
Test in all cases: glycan array binding signal (z-score within array); higher = stronger binding
Details in all cases: glycan notation: IUPAC condensed, linker removed
[1] = target: Gal(b1-4)GlcNAc(b1-3)Gal(b1-4)GlcNAc(b1-6)[Gal(b1-3)]GalNAc
Method in brief: (§1)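 Negative Z-scores can be read as non-binding. The Z-score is calculated within each array and then averaged across arrays of one protein sequence at different concentrations or buffers and across linkers. Arrays, 3228 in all, were curated from the Consortium for Functional Glycomics database and kept only where the protein sequence was available.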

[2] = target: Gal(b1-4)GlcNAc(b1-3)Gal(b1-4)[Fuc(a1-3)]GlcNAc(b1-3)Gal(b1-4)[Fuc(a1-3)]GlcNAc
Method in brief: as §1

[3] = target: Gal(b1-4)GlcNAc(b1-3)GalNAc
Method in brief: as §1

[4] = target: Gal(b1-4)GlcNAc(b1-3)[Fuc(a1-3)GlcNAc(b1-6)]Gal(b1-4)Glc
Method in brief: as §1

[5] = target: Gal(b1-4)GlcNAc(b1-3)[Gal(b1-4)GlcNAc(b1-6)]Gal(b1-4)GlcNAc
Method in brief: as §1

[6] = target: Gal(b1-4)GlcNAc(b1-3)[GlcNAc(b1-6)]Gal(b1-4)GlcNAc
Method in brief: as §1

[7] = target: Gal(b1-4)GlcNAc(b1-6)Gal(b1-4)GlcNAc
Method in brief: as §1

[8] = target: Gal(b1-4)GlcNAc(b1-6)GalNAc
Method in brief: as §1

[9] = target: Gal(b1-4)GlcNAc(b1-6)[Gal(b1-3)]GalNAc
Method in brief: as §1

[10] = target: Gal(b1-4)GlcNAc(b1-6)[Gal(b1-4)GlcNAc(b1-3)]GalNAc
Method in brief: as §1

[11] = target: Gal(b1-4)GlcNAc6P
Method in brief: as §1

[12] = target: Gal(b1-6)Gal
Method in brief: as §1

[13] = target: Gal3S(b1-3)GalNAc
Method in brief: as §1

[14] = target: Gal3S(b1-3)GlcNAc
Method in brief: as §1

[15] = target: Gal3S(b1-3)[Fuc(a1-4)]GlcNAc
Method in brief: as §1

[16] = target: Gal3S(b1-4)Glc
Method in brief: as §1

[17] = target: Gal3S(b1-4)Glc6S
Method in brief: as §1

[18] = target: Gal3S(b1-4)GlcNAc
Method in brief: as §1

[19] = target: Gal3S(b1-4)[Fuc(a1-3)]Glc6S
Method in brief: as §1

[20] = target: Gal3S(b1-4)[Fuc(a1-3)]GlcNAc
Method in brief: as §1

[21] = target: Gal3S(b1-4)[Fuc(a1-3)]GlcNAc6S
Method in brief: as §1

[22] = target: Gal3S4S(b1-4)GlcNAc
Method in brief: as §1

[23] = target: Gal3S6S(b1-4)GlcNAc
Method in brief: as §1

[24] = target: Gal3S6S(b1-4)GlcNAc6S
Method in brief: as §1

[25] = target: Gal4S(b1-4)GlcNAc
Method in brief: as §1

[26] = target: Gal4S6S(b1-4)GlcNAc
Method in brief: as §1

[27] = target: Gal6P(b1-4)GlcNAc
Method in brief: as §1

[28] = target: Gal6S(b1-3)GlcNAc
Method in brief: as §1

[29] = target: Gal6S(b1-3)GlcNAc6S
Method in brief: as §1

[30] = target: Gal6S(b1-4)Glc
Method in brief: as §1

[31] = target: Gal6S(b1-4)Glc6S
Method in brief: as §1

[32] = target: Gal6S(b1-4)GlcNAc
Method in brief: as §1

[33] = target: Gal6S(b1-4)GlcNAc6S
Method in brief: as §1

[34] = target: GalNAc(a1-3)Gal
Method in brief: as §1

[35] = target: GalNAc(a1-3)GalNAc
Method in brief: as §1

[36] = target: GalNAc(a1-3)GalNAc(b1-3)Gal(a1-4)Gal(b1-4)Glc
Method in brief: as §1

[37] = target: GalNAc(a1-3)GalNAc(b1-3)Gal(a1-4)Gal(b1-4)GlcNAc
Method in brief: as §1

[38] = target: GalNAc(b1-3)Gal
Method in brief: as §1

[39] = target: GalNAc(b1-3)Gal(a1-4)Gal(b1-4)GlcNAc
Method in brief: as §1

[40] = target: GalNAc(b1-3)Gal(a1-4)Gal(b1-4)GlcNAc(b1-3)Gal(b1-4)Glc
Method in brief: as §1

[41] = target: GalNAc(b1-3)Gal(a1-6)Gal(b1-4)Glc
Method in brief: as §1

[42] = target: GalNAc(b1-3)GalNAc
Method in brief: as §1

[43] = target: GalNAc(b1-3)GlcNAc
Method in brief: as §1

[44] = target: GalNAc(b1-4)Gal(b1-4)Glc
Method in brief: as §1

[45] = target: GalNAc(b1-4)GlcNAc
Method in brief: as §1

[46] = target: GalNAc(b1-4)GlcNAc(b1-2)Man
Method in brief: as §1

[47] = target: GalNAc(b1-4)GlcNAc(b1-2)Man(a1-3)[GalNAc(b1-4)GlcNAc(b1-2)Man(a1-6)]Man(b1-4)GlcNAc(b1-4)GlcNAc
Method in brief: as §1

[48] = target: GalNAc(b1-4)GlcNAc(b1-3)GalNAc(b1-4)GlcNAc
Method in brief: as §1

[49] = target: GalNAc(b1-4)GlcNAc6S
Method in brief: as §1

[50] = target: GalNAc(b1-6)GalNAc
Method in brief: as §1

[51] = target: GalNAc3S(b1-4)GlcNAc
Method in brief: as §1

[52] = target: GalNAc3S(b1-4)GlcNAc3S
Method in brief: as §1

[53] = target: GalNAc3S(b1-4)[Fuc(a1-3)]GlcNAc
Method in brief: as §1

[54] = target: GalNAc4S6S(b1-4)GlcNAc
Method in brief: as §1

[55] = target: GalNAc6S(b1-4)GlcNAc
Method in brief: as §1

[56] = target: Glc(a1-4)Glc
Method in brief: as §1

[57] = target: Glc(a1-4)Glc(a1-4)Glc(a1-4)Glc
Method in brief: as §1

[58] = target: Glc(a1-6)Glc(a1-6)Glc
Method in brief: as §1

[59] = target: Glc(a1-6)Glc(a1-6)Glc(a1-6)Glc
Method in brief: as §1

[60] = target: Glc(b1-4)Glc
Method in brief: as §1

[61] = target: Glc(b1-6)Glc
Method in brief: as §1

[62] = target: GlcA(b1-3)Gal
Method in brief: as §1

[63] = target: GlcA(b1-3)GlcNAc
Method in brief: as §1

[64] = target: GlcA(b1-6)Gal
Method in brief: as §1

[65] = target: GlcA3S(b1-3)Gal(b1-4)GlcNAc(b1-2)Man
Method in brief: as §1

[66] = target: GlcA3S(b1-3)Gal(b1-4)GlcNAc(b1-3)Gal(b1-4)Glc
Method in brief: as §1

[67] = target: GlcNAc(a1-3)Gal(b1-4)GlcNAc
Method in brief: as §1

[68] = target: GlcNAc(a1-4)Gal(b1-3)GlcNAc
Method in brief: as §1

[69] = target: GlcNAc(a1-4)Gal(b1-4)GalNAc
Method in brief: as §1

[70] = target: GlcNAc(a1-4)Gal(b1-4)GlcNAc
Method in brief: as §1

[71] = target: GlcNAc(a1-4)Gal(b1-4)GlcNAc(b1-3)Gal(b1-4)Glc
Method in brief: as §1

[72] = target: GlcNAc(a1-4)Gal(b1-4)GlcNAc(b1-3)Gal(b1-4)GlcNAc
Method in brief: as §1

[73] = target: GlcNAc(a1-4)Gal(b1-4)GlcNAc(b1-3)Gal(b1-4)GlcNAc(b1-3)Gal(b1-4)GlcNAc
Method in brief: as §1

[74] = target: GlcNAc(a1-4)Gal(b1-4)GlcNAc(b1-3)Gal(b1-4)[Fuc(a1-3)]GlcNAc(b1-3)Gal(b1-4)[Fuc(a1-3)]GlcNAc
Method in brief: as §1

[75] = target: GlcNAc(a1-6)Gal(b1-4)GlcNAc
Method in brief: as §1

B1: PX14367B-bvu-516-23-516 (Bacteroides vulgatus) (protein)
chain: LDTIPTTYVDAGSVFGKTGDAEKVLNGGWNYLMETFNSYANPGYGAMLRANDAMGSDVVLNSKYGFRTHNEFSAIYGKGGTNTLSWLLAYRVINDCNGVLDNIDAAEGTQADRNRIKGQALALRGFLYLHLASCYSFAIDKDPDAVCAPIYTQSTDETIAAEGKPASSVSEVYAQSINDLEEALELIPETYVRDAKHKIDNEVVLGILSRACLYARQWEKAKTYSDKLLAKDNYLMTESEYKAGFNSVDNKEWIWGHAQTNDQSNASYQFHYLDTTTKGSYYYSFNVDPYFRDLFEDGDYRKEMLFWATDPGADVESAAYVWMRNSKFRFRDIENQLGDIVLMRVAEIYLINAEAKAHLNDPDAINKLNDLKTARGAKTIHTNLSQQDLLETIWLERRKELWGEGFSLIDIIRNQQTVVRNAYPEGPIDYIYTDENGQTHTLKKKTQGHRFFNFPDKSAFCPNSKYYLYRITDSEELANKNLYKDHPKLSIYTK
glycan array binding signal (z-score) [1]: -0.301
glycan array binding signal (z-score) [2]: -0.179
glycan array binding signal (z-score) [3]: -0.331
glycan array binding signal (z-score) [4]: -0.274
glycan array binding signal (z-score) [5]: 0.179
glycan array binding signal (z-score) [6]: -0.364
glycan array binding signal (z-score) [7]: -0.274
glycan array binding signal (z-score) [8]: -0.125
glycan array binding signal (z-score) [9]: -0.273
glycan array binding signal (z-score) [10]: -0.204
glycan array binding signal (z-score) [11]: -0.365
glycan array binding signal (z-score) [12]: -0.211
glycan array binding signal (z-score) [13]: -0.332
glycan array binding signal (z-score) [14]: -0.279
glycan array binding signal (z-score) [15]: -0.317
glycan array binding signal (z-score) [16]: -0.159
glycan array binding signal (z-score) [17]: -0.22
glycan array binding signal (z-score) [18]: -0.197
glycan array binding signal (z-score) [19]: 2.87
glycan array binding signal (z-score) [20]: -0.309
glycan array binding signal (z-score) [21]: -0.285
glycan array binding signal (z-score) [22]: -0.108
glycan array binding signal (z-score) [23]: -0.262
glycan array binding signal (z-score) [24]: -0.211
glycan array binding signal (z-score) [25]: -0.325
glycan array binding signal (z-score) [26]: -0.294
glycan array binding signal (z-score) [27]: -0.339
glycan array binding signal (z-score) [28]: 3
glycan array binding signal (z-score) [29]: -0.297
glycan array binding signal (z-score) [30]: -0.219
glycan array binding signal (z-score) [31]: -0.214
glycan array binding signal (z-score) [32]: -0.039
glycan array binding signal (z-score) [33]: 6.08
glycan array binding signal (z-score) [34]: -0.133
glycan array binding signal (z-score) [35]: -0.365
glycan array binding signal (z-score) [36]: -0.201
glycan array binding signal (z-score) [37]: -0.266
glycan array binding signal (z-score) [38]: -0.341
glycan array binding signal (z-score) [39]: -0.26
glycan array binding signal (z-score) [40]: -0.376
glycan array binding signal (z-score) [41]: -0.249
glycan array binding signal (z-score) [42]: -0.152
glycan array binding signal (z-score) [43]: -0.357
glycan array binding signal (z-score) [44]: -0.318
glycan array binding signal (z-score) [45]: -0.301
glycan array binding signal (z-score) [46]: -0.113
glycan array binding signal (z-score) [47]: -0.286
glycan array binding signal (z-score) [48]: -0.331
glycan array binding signal (z-score) [49]: -0.288
glycan array binding signal (z-score) [50]: -0.34
glycan array binding signal (z-score) [51]: -0.285
glycan array binding signal (z-score) [52]: -0.254
glycan array binding signal (z-score) [53]: 1.93
glycan array binding signal (z-score) [54]: -0.223
glycan array binding signal (z-score) [55]: -0.124
glycan array binding signal (z-score) [56]: -0.287
glycan array binding signal (z-score) [57]: -0.259
glycan array binding signal (z-score) [58]: -0.38
glycan array binding signal (z-score) [59]: -0.251
glycan array binding signal (z-score) [60]: -0.261
glycan array binding signal (z-score) [61]: -0.165
glycan array binding signal (z-score) [62]: 0.749
glycan array binding signal (z-score) [63]: -0.314
glycan array binding signal (z-score) [64]: -0.262
glycan array binding signal (z-score) [65]: -0.233
glycan array binding signal (z-score) [66]: -0.35
glycan array binding signal (z-score) [67]: -0.357
glycan array binding signal (z-score) [68]: -0.315
glycan array binding signal (z-score) [69]: -0.344
glycan array binding signal (z-score) [70]: -0.192
glycan array binding signal (z-score) [71]: -0.119
glycan array binding signal (z-score) [72]: -0.2
glycan array binding signal (z-score) [73]: -0.269
glycan array binding signal (z-score) [74]: 0.017
glycan array binding signal (z-score) [75]: -0.279
